Measured values: a compilation of properties of binary mixtures (doi:10.1524/zpch.2013.0326)
Some of these densities may be calculated back from excess volumes.

Test: xn = mol fraction of the nth substance listed
Conditions: 101 kPa

`CCCCCCCC[n+]1ccc2ccccc2c1.O=S(=O)([N-]S(=O)(=O)C(F)(F)F)C(F)(F)F` + c1ccccc1 showed a mass density (298.15 K, x2 = 0.0912) of 1321.8 kg/m3, a mass density (298.15 K, x2 = 0.1505) of 1314.6 kg/m3 and a mass density (298.15 K, x2 = 0.295) of 1294.8 kg/m3. The mass density (298.15 K, x2 = 0.332) was 1289 kg/m3, the mass density (298.15 K, x2 = 0.5663) was 1234.9 kg/m3 and the mass density (298.15 K, x2 = 0.654) was 1202.9 kg/m3. For the same molecule, the mass density (298.15 K, x2 = 0.8143) was 1111 kg/m3, the mass density (298.15 K, x2 = 0.8961) was 1034.4 kg/m3 and the mass density (308.15 K, x2 = 0) was 1322.8 kg/m3. For the same molecule, the mass density (308.15 K, x2 = 0.0912) was 1313.1 kg/m3, the mass density (308.15 K, x2 = 0.1505) was 1305.9 kg/m3 and the mass density (308.15 K, x2 = 0.295) was 1286.1 kg/m3. The mass density (308.15 K, x2 = 0.332) was 1280.5 kg/m3, the mass density (308.15 K, x2 = 0.5663) was 1226 kg/m3 and the mass density (308.15 K, x2 = 0.654) was 1193.9 kg/m3. It also gave a mass density (308.15 K, x2 = 0.673) of 1185.6 kg/m3, a mass density (308.15 K, x2 = 0.7443) of 1148.6 kg/m3 and a mass density (308.15 K, x2 = 0.8143) of 1101.6 kg/m3. It also gave a mass density (308.15 K, x2 = 0.8961) of 1024.5 kg/m3, a mass density (318.15 K, x2 = 0.0912) of 1304.7 kg/m3 and a mass density (318.15 K, x2 = 0.1505) of 1297.5 kg/m3. The mass density (318.15 K, x2 = 0.295) was 1277.5 kg/m3, the mass density (318.15 K, x2 = 0.4679) was 1243.8 kg/m3 and the mass density (318.15 K, x2 = 0.654) was 1185 kg/m3. For the same molecule, the mass density (318.15 K, x2 = 0.673) was 1176.6 kg/m3, the mass density (318.15 K, x2 = 0.7443) was 1139.4 kg/m3 and the mass density (318.15 K, x2 = 0.8143) was 1092.2 kg/m3. The mass density (318.15 K, x2 = 0.8961) was 1014.7 kg/m3, the mass density (328.15 K, x2 = 0) was 1306 kg/m3 and the mass density (328.15 K, x2 = 0.0912) was 1296.2 kg/m3. For the same molecule, the mass density (328.15 K, x2 = 0.295) was 1268.9 kg/m3, the mass density (328.15 K, x2 = 0.4679) was 1235.1 kg/m3 and the mass density (328.15 K, x2 = 0.5663) was 1208.4 kg/m3. The mass density (328.15 K, x2 = 0.654) was 1176.1 kg/m3, the mass density (328.15 K, x2 = 0.7443) was 1130.2 kg/m3 and the mass density (328.15 K, x2 = 0.8143) was 1082.8 kg/m3. It also gave a mass density (328.15 K, x2 = 0.8961) of 1004.7 kg/m3, a mass density (338.15 K, x2 = 0) of 1297.6 kg/m3 and a mass density (338.15 K, x2 = 0.0912) of 1287.8 kg/m3. For the same molecule, the mass density (338.15 K, x2 = 0.1505) was 1280.6 kg/m3, the mass density (338.15 K, x2 = 0.295) was 1260.5 kg/m3 and the mass density (338.15 K, x2 = 0.332) was 1254.8 kg/m3. The mass density (338.15 K, x2 = 0.4679) was 1226.5 kg/m3, the mass density (338.15 K, x2 = 0.5663) was 1199.6 kg/m3 and the mass density (338.15 K, x2 = 0.654) was 1167.2 kg/m3. The mass density (338.15 K, x2 = 0.7443) was 1121.1 kg/m3, the mass density (338.15 K, x2 = 0.8961) was 994.8 kg/m3 and the mass density (348.15 K, x2 = 0) was 1289.2 kg/m3. It also gave a mass density (348.15 K, x2 = 0.0912) of 1279.4 kg/m3, a mass density (348.15 K, x2 = 0.1505) of 1272.2 kg/m3 and a mass density (348.15 K, x2 = 0.295) of 1252.3 kg/m3. For the same molecule, the mass density (348.15 K, x2 = 0.4679) was 1217.8 kg/m3, the mass density (348.15 K, x2 = 0.5663) was 1190.8 kg/m3 and the mass density (348.15 K, x2 = 0.673) was 1149.7 kg/m3. It also gave a mass density (348.15 K, x2 = 0.7443) of 1111.9 kg/m3 and a mass density (348.15 K, x2 = 0.8143) of 1063.8 kg/m3.
`c1ccsc1` + CCCCCCCC[n+]1ccc2ccccc2c1.O=S(=O)([N-]S(=O)(=O)C(F)(F)F)C(F)(F)F showed a mass density (298.15 K, x1 = 1) of 1058.5 kg/m3, a mass density (308.15 K, x1 = 1) of 1046.6 kg/m3 and a mass density (318.15 K, x1 = 1) of 1034.5 kg/m3. The mass density (328.15 K, x1 = 1) was 1022.3 kg/m3 and the mass density (338.15 K, x1 = 1) was 1009.9 kg/m3.
With `CCCCCCCC[n+]1ccc2ccccc2c1.O=S(=O)([N-]S(=O)(=O)C(F)(F)F)C(F)(F)F` + c1ccsc1 the mass density (298.15 K, x2 = 0) was 1331.5 kg/m3, the mass density (298.15 K, x2 = 0.0964) was 1325.7 kg/m3 and the mass density (298.15 K, x2 = 0.1907) was 1319.5 kg/m3. It also gave a mass density (298.15 K, x2 = 0.2739) of 1313.1 kg/m3, a mass density (298.15 K, x2 = 0.3572) of 1306 kg/m3 and a mass density (298.15 K, x2 = 0.4456) of 1296.8 kg/m3. For the same molecule, the mass density (298.15 K, x2 = 0.6385) was 1264.9 kg/m3, the mass density (298.15 K, x2 = 0.7244) was 1243.1 kg/m3 and the mass density (298.15 K, x2 = 0.8627) was 1185.3 kg/m3. The mass density (298.15 K, x2 = 0.9065) was 1154.9 kg/m3, the mass density (298.15 K, x2 = 0.935) was 1131.3 kg/m3 and the mass density (308.15 K, x2 = 0) was 1322.8 kg/m3. For the same molecule, the mass density (308.15 K, x2 = 0.1907) was 1310.8 kg/m3, the mass density (308.15 K, x2 = 0.2739) was 1304.5 kg/m3 and the mass density (308.15 K, x2 = 0.3572) was 1297.2 kg/m3. For the same molecule, the mass density (308.15 K, x2 = 0.4456) was 1287.9 kg/m3, the mass density (308.15 K, x2 = 0.7244) was 1233.7 kg/m3 and the mass density (308.15 K, x2 = 0.8627) was 1175.1 kg/m3. It also gave a mass density (308.15 K, x2 = 0.935) of 1120.4 kg/m3, a mass density (318.15 K, x2 = 0.1907) of 1302.3 kg/m3 and a mass density (318.15 K, x2 = 0.3572) of 1288.5 kg/m3. The mass density (318.15 K, x2 = 0.4456) was 1279.1 kg/m3, the mass density (318.15 K, x2 = 0.542) was 1265 kg/m3 and the mass density (318.15 K, x2 = 0.6385) was 1246.5 kg/m3. It also gave a mass density (318.15 K, x2 = 0.7244) of 1224.2 kg/m3, a mass density (318.15 K, x2 = 0.821) of 1187 kg/m3 and a mass density (318.15 K, x2 = 0.8627) of 1165 kg/m3. It also gave a mass density (318.15 K, x2 = 0.935) of 1109.4 kg/m3, a mass density (328.15 K, x2 = 0) of 1306 kg/m3 and a mass density (328.15 K, x2 = 0.0964) of 1300.1 kg/m3. It also gave a mass density (328.15 K, x2 = 0.1907) of 1293.7 kg/m3, a mass density (328.15 K, x2 = 0.2739) of 1287.5 kg/m3 and a mass density (328.15 K, x2 = 0.3572) of 1279.8 kg/m3. For the same molecule, the mass density (328.15 K, x2 = 0.4456) was 1270.3 kg/m3, the mass density (328.15 K, x2 = 0.542) was 1256 kg/m3 and the mass density (328.15 K, x2 = 0.6385) was 1237.4 kg/m3. For the same molecule, the mass density (328.15 K, x2 = 0.7244) was 1214.8 kg/m3, the mass density (328.15 K, x2 = 0.821) was 1177.1 kg/m3 and the mass density (328.15 K, x2 = 0.8627) was 1154.8 kg/m3. The mass density (328.15 K, x2 = 0.9065) was 1123.1 kg/m3, the mass density (328.15 K, x2 = 0.935) was 1098.4 kg/m3 and the mass density (338.15 K, x2 = 0) was 1297.6 kg/m3. The mass density (338.15 K, x2 = 0.0964) was 1291.6 kg/m3, the mass density (338.15 K, x2 = 0.1907) was 1285.2 kg/m3 and the mass density (338.15 K, x2 = 0.2739) was 1278.9 kg/m3. For the same molecule, the mass density (338.15 K, x2 = 0.4456) was 1261.5 kg/m3, the mass density (338.15 K, x2 = 0.542) was 1247.1 kg/m3 and the mass density (338.15 K, x2 = 0.6385) was 1228.2 kg/m3. The mass density (338.15 K, x2 = 0.7244) was 1205.4 kg/m3, the mass density (338.15 K, x2 = 0.821) was 1167.2 kg/m3 and the mass density (338.15 K, x2 = 0.8627) was 1144.5 kg/m3. The mass density (338.15 K, x2 = 0.9065) was 1112.4 kg/m3, the mass density (338.15 K, x2 = 0.935) was 1087.2 kg/m3 and the mass density (348.15 K, x2 = 0) was 1289.2 kg/m3. The mass density (348.15 K, x2 = 0.0964) was 1283.2 kg/m3, the mass density (348.15 K, x2 = 0.1907) was 1276.7 kg/m3 and the mass density (348.15 K, x2 = 0.2739) was 1270.4 kg/m3. For the same molecule, the mass density (348.15 K, x2 = 0.3572) was 1262.5 kg/m3, the mass density (348.15 K, x2 = 0.542) was 1238.2 kg/m3 and the mass density (348.15 K, x2 = 0.6385) was 1219.1 kg/m3. It also gave a mass density (348.15 K, x2 = 0.7244) of 1196 kg/m3, a mass density (348.15 K, x2 = 0.821) of 1157.3 kg/m3 and a mass density (348.15 K, x2 = 0.8627) of 1134.3 kg/m3. It also gave a mass density (348.15 K, x2 = 0.9065) of 1101.6 kg/m3 and a mass density (348.15 K, x2 = 0.935) of 1075.7 kg/m3.
